The values below come from a collection of fitness landscapes (doi:10.1016/j.celrep.2020.107928).

Over roughly 81,000 sequences, “one-hybrid fitness for binding NBS DNA” has its median near -0.1; the highest 2% begin near 0.36. This is one part of the list.

B1: Caulobacter ParB omega fusion; a variant is named by its letters at X, in order, B8GW30 (parent)
chain: MESVVVGEPGMSEGRRGLGRGLSALLGEVDAAPAQAPGEQLGGSREAPIEILQRNPDQPRRTFREEDLEDLSNSIREKGVLQPILVRPSPDTAGEYQIVAGERAWRAAQRAGLKTVPIMVRELDDLAVLEIGIIENVQRADLNVLEEALSYKVLMEKFERTQENIAQTIGKSXSHVANXMRLLXLPDEVQSYLVSGELTAXHARAIAAAADPVALAKQIIEGGLSVRETEALARKAPNLSAGKSKGGRPPRVKDTDTQALESDLSSVLGLDVSIDHRGSTGTLTITYATLEQLDDLCNRLTRGI

The variants in this test derive from B1. Kind of test: one-hybrid fitness for binding NBS DNA (the Noc-binding site; scaled: cognate 1, non-cognate 0); higher = stronger binding. To be noted: with NBS DNA site. Put shortly:
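Pre- and post-selection plasmids were Illumina-sequenced, three replicate libraries were pooled, and any variant with under 10 reads was removed. The libraries were Caulobacter ParB with four specificity codons randomised, selected in E. coli USO through a HIS3 reporter whose site is 19 bp from the promoter. Cells grew 48 hours at 37°C on M9 without histidine, with 0.1 mM IPTG and 5 mM 3-AT. Fitness is the log change in variant-to-wild-type read ratio, rescaled against cognate and non-cognate.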
Consider KKVS, for which the “one-hybrid fitness for binding NBS DNA” value was no more than 0.2.
Then DNMK, with no more than 0.2.
Then PASG, with no more than 0.2.
Regarding GVAA, the “one-hybrid fitness for binding NBS DNA” value was no more than 0.2.
Then GPRW, with no more than 0.2.
As to RSTF, the “one-hybrid fitness for binding NBS DNA” value was no more than 0.2.
Then AYSM, with no more than 0.2; and MNAC, with no more than 0.2; and ERVY, with no more than 0.2.
To GTGS belongs no more than 0.2; to PMCP, no more than 0.2; to VHPG, no more than 0.2.
To TQWS belongs no more than 0.2.
As for ATNA, the “one-hybrid fitness for binding NBS DNA” value was no more than 0.2.
With CVSY, the “one-hybrid fitness for binding NBS DNA” value was no more than 0.2.
Turning to ENSV, the “one-hybrid fitness for binding NBS DNA” value is no more than 0.2.
To SRKC belongs no more than 0.2; to PILY, no more than 0.2.
For the variant CCWY, the “one-hybrid fitness for binding NBS DNA” value was no more than 0.2.
Then TLDL, with no more than 0.2; and RMGV, with no more than 0.2; and NHFG, with no more than 0.2.
For PVSQ, the “one-hybrid fitness for binding NBS DNA” value was no more than 0.2.
Then FQFS, with no more than 0.2.
Then MNRT, with no more than 0.2; and AHHL, with no more than 0.2.
To QYDR belongs 0.305; to MAAG, no more than 0.2; to IVAE, no more than 0.2.
For the variant WRGE, the “one-hybrid fitness for binding NBS DNA” value was no more than 0.2.
To QETV belongs no more than 0.2; to QYQV, no more than 0.2; to PQLI, no more than 0.2.
To MIPK belongs no more than 0.2; to DPES, no more than 0.2.
To QTLK belongs no more than 0.2.
With YKTR, the “one-hybrid fitness for binding NBS DNA” value is no more than 0.2.
To GLPI belongs no more than 0.2; to KHGS, no more than 0.2.
In the case of AASK, the “one-hybrid fitness for binding NBS DNA” value was no more than 0.2.
Then YRCW, with no more than 0.2.
HSSD: the “one-hybrid fitness for binding NBS DNA” value is no more than 0.2.
To PPKD belongs no more than 0.2; to DHSP, no more than 0.2; to SVYT, no more than 0.2.
Consider KYCR, for which the “one-hybrid fitness for binding NBS DNA” value was no more than 0.2.
Then IEHT, with no more than 0.2; and LLTD, with no more than 0.2.
On to LVHN, for which the “one-hybrid fitness for binding NBS DNA” value is no more than 0.2.
Take WARR: the “one-hybrid fitness for binding NBS DNA” value was no more than 0.2.
Then VRPD, with no more than 0.2; and SRRQ, with no more than 0.2.
As to CRFV, the “one-hybrid fitness for binding NBS DNA” value was no more than 0.2.
Then RVHW, with no more than 0.2.
Then NSFG, with no more than 0.2; and RQYN, with no more than 0.2; and CVQS, with no more than 0.2.
To QMVR belongs 0.424; to LQHE, no more than 0.2; to KFCC, no more than 0.2.
Turning to HAMC, the “one-hybrid fitness for binding NBS DNA” value was no more than 0.2.
Then QDVH, with no more than 0.2; and VAIG, with no more than 0.2.
Then YKYT, with no more than 0.2.
Then MEAF, with no more than 0.2.
TRMK: the “one-hybrid fitness for binding NBS DNA” value was no more than 0.2.
To PADM belongs no more than 0.2; to CAPE, no more than 0.2.
Then MLNG, with no more than 0.2; and QQTA, with 0.353; and WPQT, with no more than 0.2.
Then DQVW, with no more than 0.2; and VTPI, with no more than 0.2; and RHTL, with no more than 0.2.
Take KTYC: the “one-hybrid fitness for binding NBS DNA” value is no more than 0.2.
For the variant HCLW, the “one-hybrid fitness for binding NBS DNA” value was no more than 0.2.
To DCIF belongs no more than 0.2.
Then PDVP, with no more than 0.2.
Then SEMR, with no more than 0.2; and MISG, with no more than 0.2.
Turning to FNRS, the “one-hybrid fitness for binding NBS DNA” value was no more than 0.2.
To QKEW belongs no more than 0.2; to RIFN, no more than 0.2; to SRQS, no more than 0.2.
To LIPS belongs no more than 0.2; to IRDN, no more than 0.2; to PLHY, no more than 0.2.
To QVSP belongs no more than 0.2; to WDGR, no more than 0.2.
Turning to GGDQ, the “one-hybrid fitness for binding NBS DNA” value was no more than 0.2.
Then DVDY, with no more than 0.2.
To EHIR belongs no more than 0.2; to TKTR, no more than 0.2; to PNNY, no more than 0.2.
To TSKH belongs no more than 0.2; to IKTK, no more than 0.2; to DSLR, no more than 0.2.
For HYMG, the “one-hybrid fitness for binding NBS DNA” value is no more than 0.2.
On to NILE, for which the “one-hybrid fitness for binding NBS DNA” value was no more than 0.2.
Then RCKG, with no more than 0.2.
Then STNW, with no more than 0.2.
Then SRYN, with no more than 0.2; and YDPD, with no more than 0.2; and DMWG, with no more than 0.2.
As to KAIE, the “one-hybrid fitness for binding NBS DNA” value was no more than 0.2.
Then ANSR, with no more than 0.2; and RITD, with no more than 0.2; and YQRT, with no more than 0.2.
To HQEM belongs no more than 0.2; to HEPF, no more than 0.2; to TCGR, no more than 0.2.
For the variant AGRA, the “one-hybrid fitness for binding NBS DNA” value is no more than 0.2.
To GEVW belongs no more than 0.2; to RYTT, 0.461; to PWNR, no more than 0.2.
For AQKT, the “one-hybrid fitness for binding NBS DNA” value was no more than 0.2.
To DMTG belongs no more than 0.2.
Then NNHT, with no more than 0.2; and KPPC, with no more than 0.2; and LVMR, with no more than 0.2.
As for CQVE, the “one-hybrid fitness for binding NBS DNA” value was no more than 0.2.
For the variant AAMN, the “one-hybrid fitness for binding NBS DNA” value was no more than 0.2.
Take VMSY: the “one-hybrid fitness for binding NBS DNA” value is no more than 0.2.
To VGRW belongs no more than 0.2.
Regarding PESE, the “one-hybrid fitness for binding NBS DNA” value is no more than 0.2.
LQKS: the “one-hybrid fitness for binding NBS DNA” value was no more than 0.2.
Then VPFR, with no more than 0.2; and QLLW, with no more than 0.2.
With MWSR, the “one-hybrid fitness for binding NBS DNA” value is no more than 0.2.
Then PEDS, with no more than 0.2; and QPEN, with no more than 0.2; and RCMK, with no more than 0.2.
To IEQT belongs no more than 0.2; to RHNE, no more than 0.2.
To LGIL belongs no more than 0.2.
As for RQFG, the “one-hybrid fitness for binding NBS DNA” value was no more than 0.2.
Then LDNS, with no more than 0.2.
Then RFDY, with no more than 0.2; and KGDD, with no more than 0.2.
To GNSL belongs no more than 0.2.
HKDW: the “one-hybrid fitness for binding NBS DNA” value is no more than 0.2.
Then PPTN, with no more than 0.2; and QFML, with no more than 0.2.
STFR: the “one-hybrid fitness for binding NBS DNA” value is no more than 0.2.
Consider THHS, for which the “one-hybrid fitness for binding NBS DNA” value is no more than 0.2.
To PGKE belongs no more than 0.2.
To RLYT belongs 0.391; to TAHG, no more than 0.2; to LTRL, no more than 0.2.
Then PVNM, with no more than 0.2.
On to DVNG, for which the “one-hybrid fitness for binding NBS DNA” value was no more than 0.2.
Then LFRR, with no more than 0.2; and HSLE, with no more than 0.2.
